Test results taken from PMC4336329 (PLoS ONE, 2015).
Hit rate of the full screen: of about 310,000 compounds, about 14,000 (4.5%) showed an effect of 50% or more. Effects have a minus sign here. Some of the results follow.

target: human ether-à-go-go-related gene (hERG) potassium channel (human, UniProt Q12809); assay: primary screen, population patch clamp on CHO cells stably expressing hERG
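Further: peak tail current of the secondary pulse compared with the same well before compound.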

human ether-à-go-go-related gene (hERG) potassium channel, sequence (Q12809 whole entry, looked up): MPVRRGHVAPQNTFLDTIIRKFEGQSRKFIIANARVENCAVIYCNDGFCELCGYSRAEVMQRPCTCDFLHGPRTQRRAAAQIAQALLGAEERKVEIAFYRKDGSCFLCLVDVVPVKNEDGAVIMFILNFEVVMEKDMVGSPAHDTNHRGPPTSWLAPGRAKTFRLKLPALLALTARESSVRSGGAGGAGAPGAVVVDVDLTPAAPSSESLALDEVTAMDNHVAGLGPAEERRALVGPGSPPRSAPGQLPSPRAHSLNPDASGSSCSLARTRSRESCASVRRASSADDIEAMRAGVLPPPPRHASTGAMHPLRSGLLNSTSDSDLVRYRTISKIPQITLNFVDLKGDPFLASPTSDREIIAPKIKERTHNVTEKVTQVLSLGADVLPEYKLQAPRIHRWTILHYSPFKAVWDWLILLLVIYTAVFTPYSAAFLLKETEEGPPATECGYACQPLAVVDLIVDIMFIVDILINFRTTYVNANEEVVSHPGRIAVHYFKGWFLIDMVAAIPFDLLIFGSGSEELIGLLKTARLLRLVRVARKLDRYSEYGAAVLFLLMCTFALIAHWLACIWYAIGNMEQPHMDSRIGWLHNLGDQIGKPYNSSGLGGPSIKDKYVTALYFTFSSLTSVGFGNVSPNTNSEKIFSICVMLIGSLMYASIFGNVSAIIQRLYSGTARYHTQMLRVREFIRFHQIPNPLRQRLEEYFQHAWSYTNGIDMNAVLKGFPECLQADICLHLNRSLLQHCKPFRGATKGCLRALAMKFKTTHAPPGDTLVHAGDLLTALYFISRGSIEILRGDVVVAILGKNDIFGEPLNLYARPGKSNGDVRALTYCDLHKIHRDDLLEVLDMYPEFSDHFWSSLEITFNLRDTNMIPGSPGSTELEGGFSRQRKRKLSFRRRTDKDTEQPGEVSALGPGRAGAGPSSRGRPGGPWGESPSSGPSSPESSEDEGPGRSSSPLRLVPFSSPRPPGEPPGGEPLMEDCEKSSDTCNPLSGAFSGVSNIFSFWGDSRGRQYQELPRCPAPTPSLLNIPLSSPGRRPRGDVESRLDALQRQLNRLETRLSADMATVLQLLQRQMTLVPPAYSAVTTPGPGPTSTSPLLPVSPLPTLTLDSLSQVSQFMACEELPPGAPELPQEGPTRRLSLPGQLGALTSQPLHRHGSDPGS

Point of comparison: `Cc1nc(CNC(=O)c2cc(COc3ccc(F)cc3Cl)on2)cs1`, “hERG current change (%, negative = inhibition) at 10uM” value -5.88%. Against it:
- Cc1cc(C)nc(NS(=O)(=O)c2ccc(NC(=O)CCCN3C(=O)c4ccccc4C3=O)cc2)n1 — higher, 2.6%
- Cc1nn(CCCC(=O)N2CCc3ccccc3C2)c(=O)c2cc3sccc3n12 — lower, -75.5%
- COc1ccc(NS(=O)(=O)c2ccc3c(c2)NC(=O)CC(=O)N3)cc1OC — higher, 16.1%
- CC(=O)Nc1ccc(C(=O)COC(=O)C2CCCCC2)c(F)c1 — higher, 10.6%
- COc1ccc2cc3cc(C(=O)N4CCCC(C)C4)oc3nc2c1 (stereo not shown) — higher, 8.67%
- COc1cccc(-c2sc3ccc(OC)cc3c2-c2cc(F)cc(OC)c2)c1 — higher, 15%
- O=C(Nn1cnc2ccccc2c1=O)c1ccc(F)cc1Cl — higher, 10.9%
- Cc1cc(C)n2nc(SCc3nnc(SCc4ccccc4)s3)nc2n1 — lower, -28.6%
- O=C1N(Cc2cccc(Cl)c2)C[C@@H]2C[C@@H](c3cccn3-c3nccs3)N3CCC[C@@]123 — lower, -68%
- CN(C)/C=C1/Nc2ccccc2C1=O — higher, 10.7%
- CC1CCN(C2=C(NS(=O)(=O)c3ccc(Br)cc3)C(=O)c3ccccc3C2=O)CC1 — higher, -0.513%
- Nc1n[nH]c(N)c1N=Nc1ccccc1F — higher, 13%
- NC(=O)[C@@H]1CCCN1C(=O)c1ccc2nc(Cc3cccc(Cl)c3)oc2c1 — lower, -5.99%
- CCOc1ccc(-c2c(C)n([O-])c3c([n+]2=O)CCCC3)cc1 — higher, -1.2%
- O=C(CSc1nccn(-c2ccc(Br)cc2)c1=O)Nc1ccccc1F — higher, 11.1%
- N#C/C(=C\c1cc([N+](=O)[O-])c(N2CCCCC2)cc1N1CCCCC1)c1nn(-c2ccccc2)c(N)c1C#N — higher, 6.77%
- O=C1CC(C(=O)NCc2ccccc2)N=C(N2CCCCC2)N1 (stereo not shown) — higher, 4.85%
- CN1CCN(c2ccc(S(=O)(=O)N3CCCCC3)cn2)CC1 — lower, -6.33%
- O=C(O)CCc1ccc(-c2ccccc2)n1CC(=O)O — higher, 12.4%
- Cc1ccccc1-n1c(O)c(C(c2ccncc2)c2c(O)n(-c3ccccc3C)c(=O)[nH]c2=O)c(=O)[nH]c1=O — higher, 7.64%
- CC/C(=N\NC(=O)c1ccoc1C)c1ccc(C)o1 — lower, -14.3%
- COc1cc2c(cc1OC)CN(C(=O)c1ccc(S(=O)(=O)N3CCCC3)cc1)CC2 — higher, 8.19%
- Cc1ccc(C)c(NC(=S)NCC(c2ccccc2)N(C)C)c1 (stereo not shown) — lower, -17.6%
- COc1ccccc1CN1CCCCC1C(=O)O (stereo not shown) — higher, 9.48%
- COc1ccc(/C=C(\NC(=O)c2ccc([N+](=O)[O-])cc2)C(=O)NCCCn2ccnc2)cc1 — lower, -69.4%
- N#CCSc1nc2c(c(=O)n1Cc1ccco1)C1(CCCC1)Cc1ccccc1-2 — higher, 13.4%
- COc1cc(/C=C(\C#N)C(=O)c2ccc(O)c(O)c2)cc(I)c1O — higher, 8.34%
- Cl.OC(COc1cccc(OCC(O)CN2CCOCC2)c1)CN1CCOCC1 (stereo not shown) — higher, 7.41%
- O=C1[C@@H]2Cc3c([nH]c4ccccc34)CN2C(=O)CN1CCCO — higher, 16.7%
- Clc1ccc(C(c2ccccc2)c2ncc[nH]2)cc1 (stereo not shown) — higher, 9.27%
- COc1ccc(CS(=O)c2nc(C)cc(C)c2S(C)(=O)=O)cc1 (stereo not shown) — higher, 22.8%
- Cn1c(=O)c2c(nc(CN3CCN(C(=O)c4ccco4)CC3)n2CCc2ccccc2)n(C)c1=O — lower, -66.3%
- CCOC(=O)c1ccc(N2NC(=O)/C(=C/c3ccc(OC(=O)c4ccco4)c(OC)c3)C2=O)cc1 — higher, 14.3%
- O=C(CSC1=NS(=O)(=O)c2ccccc2N1)N1CCCCC1 — higher, 2.67%
- CCOc1ccc(N(CC(=O)NCc2ccc(OC)cc2)S(=O)(=O)c2c(C)[nH]c(=O)[nH]c2=O)cc1 — higher, 19.4%
- CC(NS(=O)(=O)c1ccccc1)c1n[nH]c(=S)n1-c1ccccc1 (stereo not shown) — lower, -21.3%
- Cc1cc(C)n(CCN(C)c2nc3nonc3nc2NC2CC2)n1 — higher, 18.8%
- O=C(CSS(=O)(=O)[O-])N1CCN(C(=O)c2ccoc2)CC1.[Na+] — higher, 19.6%
- O=C1C2N=NN(CC(=O)N3N=C(c4cccc5ccccc45)CC3c3ccccc3)C2C(=O)N1c1ccccc1 (stereo not shown) — higher, -2.53%
- COc1ccc(OC)c(NC2=NCCCS2)c1 — higher, 9.99%
- CCc1ccc(N2CC34C=CC(O3)C(C(=O)OC(C)C)C4C2=O)cc1 (stereo not shown) — higher, 10.9%
- O=S(N1CCCCCC1)C12CC3CC(CC(C3)C1)C2 (stereo not shown) — lower, -10.6%
- COc1cccc(NC(=S)NC2CC3CCCC(C2)N3C2CCCC2)c1 (stereo not shown) — lower, -33.6%
- CC1(C)C2CCC1(C)C([NH2+]c1ccccc1)C2.[Cl-] (stereo not shown) — higher, 15.2%
- Clc1cc2c(c(Cn3cnc4ccccc43)c1)OCOC2 — higher, 11.2%
- Cc1ccc(NC(=O)CS(=O)(=O)c2cn(C)c3ccccc23)c(C)c1 — higher, 6.26%
- Cc1nc2scc(-c3ccccc3)c2c(=O)n1/N=C/c1ccco1 — higher, 2.25%
- O=S(=O)(c1ccccc1)N1CCC(O)(CSc2ccc(F)cc2)CC1 — higher, 15.7%
- CS(=O)(=O)O.c1ccc2c(c1)CCc1c(-c3ccncc3)n[nH]c1-2 — higher, -3.06%
- Cc1onc(-c2ccccc2Cl)c1C(=O)N1CCN(C=O)CC1 — higher, 27.9%
- COc1ccccc1CNCc1cccs1.Cl — higher, -2.91%
- CC(=O)Nc1ccc(NC(=O)N(c2ccccc2)c2ccccc2)cc1 — higher, 14.7%
- CC(CNS(=O)(=O)c1ccc(Br)cc1)CN(C)C (stereo not shown) — lower, -31.8%
- Cc1c(NC(=O)c2cccc(NS(C)(=O)=O)c2)c(=O)n(-c2ccccc2)n1C — higher, 4.18%
